Laboratory results reported in patent US12016868B2, “Boronic acid derivatives and therapeutic uses thereof” (Qpex Biopharma, Inc., priority 2018, dated 2024).
The name of at least one read-out is uncertain.

What was measured:
AB1053 OXA-72 = experiment: Meropenem potentiation assay (MPC@8) and meropenem MIC; type: cell-based, Acinetobacter baumannii; conditions: minimum BLI concentration inhibiting growth with meropenem 8 μg/mL; A. baumannii strain AB1053 OXA-72; tested up to 20 μg/mL
Experimental: β-lactamase inhibitors were also tested for their ability to potentiate the carbapenem meropenem against strains of Acinetobacter baumannii producing class D (OXA-23 and OXA-72) carbapenemases. […] Meropenem was present in the test medium at 8 μg/mL. Compounds were tested at concentrations up to 20 μg/mL. In this assay, potency of compounds was reported as the minimum concentration of BLI required to inhibit growth of bacteria in the presence of 8 μg/mL of meropenem (MPC@8).

KP1004 KPC-2 [1] = experiment: Aztreonam potentiation assay (MPC@4) and aztreonam MIC; type: cell-based; conditions: minimum BLI concentration inhibiting growth with aztreonam 4 μg/mL; strain KP1004 KPC-2; tested up to 20 μg/mL
Experimental: (§1) The potency and spectrum of β-lactamase inhibitors (BLIs) was determined by assessing their aztreonam potentiation activity in a dose titration potentiation assay using strains of various bacteria that are resistant to aztreonam due to expression of various β-lactamases. Aztreonam is a monobactam antibiotic and is hydrolyzed by the majority of β-lactamases that belong to class A or C (but not class B or D). The potentiation effect was observed as the ability of BLI compounds to inhibit growth in the presence of sub-inhibitory concentration of aztreonam. […] Aztreonam was present in the test medium at 4 μg/mL. Compounds were tested at concentrations up to 20 μg/mL. In this assay, potency of compounds was reported as the minimum concentration of BLI required to inhibit growth of bacteria in the presence of 4 μg/mL of aztreonam (MPC@4). Table 1 summarizes the BLI potency of aztreonam potentiation (MPC@4) for various strains overexpressing class A (ESBL and KPC), and class C β-lactamases. Aztreonam MIC for each strain is also shown.

KP1010 SHV-12 = experiment: as above; type: cell-based; conditions: minimum BLI concentration inhibiting growth with aztreonam 4 μg/mL; strain KP1010 SHV-12; tested up to 20 μg/mL
Experimental: as §1

ECL1002 [2] = experiment: as above; type: cell-based; conditions: minimum BLI concentration inhibiting growth with aztreonam 4 μg/mL; strain ECL1002; tested up to 20 μg/mL
Experimental: as §1

KP1081 NDM-1 = experiment: Biapenem potentiation assay (MPC@1) and biapenem MIC; type: cell-based; conditions: minimum BLI concentration inhibiting growth with biapenem 1 μg/mL; strain KP1081 NDM-1; tested up to 20 μg/mL
Experimental: (§2) β-lactamase inhibitors were also tested for their ability to potentiate the carbapenem biapenem against strains producing class A (KPC), class D (OXA-48), and class B (metallo β-lactamases, NDM-1 and VIM-1) carbapenemases. The potentiation effect was observed as the ability of BLI compounds to inhibit growth in the presence of a sub-inhibitory concentration of biapenem. […] Biapenem was present in the test medium at 1 μg/mL. Compounds were tested at concentrations up to 20 μg/mL. In this assay, potency of compounds was reported as the minimum concentration of BLI required to inhibit growth of bacteria in the presence of 1 μg/mL of biapenem (MPC@1). Table 3 summarizes the BLI potency of biapenem potentiation (MPC@1) for four strains overexpressing class A (KPC), class D (OXA-48), and class B (NDM-1 and VIM-1) carbapenemases. Biapenem MIC for each strain is also shown.

KP1086 OXA-48 = experiment: as above; type: cell-based; conditions: minimum BLI concentration inhibiting growth with biapenem 1 μg/mL; strain KP1086 OXA-48; tested up to 20 μg/mL
Experimental: as §2

KP1004 KPC-2 [3] = experiment: as above; type: cell-based; conditions: minimum BLI concentration inhibiting growth with biapenem 1 μg/mL; strain KP1004 KPC-2; tested up to 20 μg/mL
Experimental: as §2

ec308 SHV-5 = experiment: Tigemonam potentiation assay (MPC@4) and tigemonam MIC; type: cell-based; conditions: minimum BLI concentration inhibiting growth with tigemonam 4 μg/mL; strain ec308 SHV-5; tested up to 20 μg/mL
Experimental: (§3) Selected β-lactamase inhibitors were also tested for their ability to potentiate the monobactam tigemonam. […] Tigemonam was present in the test medium at 4 μg/mL. Compounds were tested at concentrations up to 20 μg/mL. In this assay, potency of compounds was reported as the minimum concentration of BLI required to inhibit growth of bacteria in the presence of 4 μg/mL of tigemonam (MPC@4). Table 2 summarizes the BLI potency of tigemonam potentiation (MPC@4) for various strains overexpressing class A (ESBL) and class C β-lactamases.

ECL1002 [4] = experiment: as above; type: cell-based; conditions: minimum BLI concentration inhibiting growth with tigemonam 4 μg/mL; strain ECL1002; tested up to 20 μg/mL
Experimental: as §3

Row | SMILES | MPM MPC8 AB1053 OXA-72 (AB1053 OXA-72) | AZT MPC4 KPC-2 KP1004 (KP1004 KPC-2 [1]) | AZT MPC4 SHV-12 KP1010 (KP1010 SHV-12) | AZT MPC4 ECL1002 (ECL1002 [2]) | BPM MPC1 KP1081 NDM-1 (KP1081 NDM-1) | BPM MPC1 OXA-48 KP1086 (KP1086 OXA-48) | BPM MPC1 KP1004 KPC-2 (KP1004 KPC-2 [3]) | TIG MPC4 SHV-5 ec308 (ec308 SHV-5) | TIG MPC4 ECL1002 (ECL1002 [4])
1 | O=C(O)c1cccc2c1OB(O)CC2CO (stereo not drawn) [Compound 1, 2-Hydroxy-4-(hydroxymethyl)-3,4-dihydro-1,2-benzoxaborinine-8-carboxylic Acid] | Z (Z = MPC@1 > 20 μg/mL) | X (X = MPC@4 ≤ 5 μg/mL) | X (X = MPC@4 ≤ 5 μg/mL) | Y (Y = 5 μg/mL < MPC@4 ≤ 20 μg/mL) | X (X = MPC@1 ≤ 5 μg/mL) | X (X = MPC@1 ≤ 5 μg/mL) | X (X = MPC@1 ≤ 5 μg/mL) | Z (Z = MPC@4 > 20 μg/mL) | X (X = MPC@4 ≤ 5 μg/mL)
2 | COc1ccc2c(c1C(=O)O)OB(O)CC2COCc1ccccc1 (stereo not drawn) [Compound 2, 4-(benzyloxymethyl)-2-hydroxy-7-methoxy-3,4-dihydro-1,2-benzoxaborinine-8-carboxylic Acid] | Y (Y = 5 μg/mL < MPC@1 ≤ 20 μg/mL) | Y (Y = 5 μg/mL < MPC@4 ≤ 20 μg/mL) | X (X = MPC@4 ≤ 5 μg/mL) | Y (Y = 5 μg/mL < MPC@4 ≤ 20 μg/mL) | Z (Z = MPC@1 > 20 μg/mL) | X (X = MPC@1 ≤ 5 μg/mL) | X (X = MPC@1 ≤ 5 μg/mL) | Y (Y = 5 μg/mL < MPC@4 ≤ 20 μg/mL) | X (X = MPC@4 ≤ 5 μg/mL)
3 | COc1ccc2c(c1C(=O)O)OB(O)CC2CO (stereo not drawn) [Compound 3, 2-Hydroxy-4-(hydroxymethyl)-7-methoxy-3,4-dihydro-1,2-benzoxaborinine-8-carboxylic Acid] | X (X = MPC@1 ≤ 5 μg/mL) | X (X = MPC@4 ≤ 5 μg/mL) | X (X = MPC@4 ≤ 5 μg/mL) | X (X = MPC@4 ≤ 5 μg/mL) | X (X = MPC@1 ≤ 5 μg/mL) | X (X = MPC@1 ≤ 5 μg/mL) | X (X = MPC@1 ≤ 5 μg/mL) | X (X = MPC@4 ≤ 5 μg/mL) | X (X = MPC@4 ≤ 5 μg/mL)
4 | COc1ccc2c(c1C(=O)O)OB(O)C[C@H]2CO [Compound 4, (4R)-2-hydroxy-4-(hydroxymethyl)-7-methoxy-3,4-dihydro-1,2-benzoxaborinine-8-carboxylic Acid] | X (X = MPC@1 ≤ 5 μg/mL) | X (X = MPC@4 ≤ 5 μg/mL) | X (X = MPC@4 ≤ 5 μg/mL) | X (X = MPC@4 ≤ 5 μg/mL) | X (X = MPC@1 ≤ 5 μg/mL) | X (X = MPC@1 ≤ 5 μg/mL) | X (X = MPC@1 ≤ 5 μg/mL) | X (X = MPC@4 ≤ 5 μg/mL) | X (X = MPC@4 ≤ 5 μg/mL)
5 | COc1ccc2c(c1C(=O)O)OB(O)C[C@@H]2CO [Compound 5, (4S)-2-hydroxy-4-(hydroxymethyl)-7-methoxy-3,4-dihydro-1,2-benzoxaborinine-8-carboxylic Acid] | X (X = MPC@1 ≤ 5 μg/mL) | X (X = MPC@4 ≤ 5 μg/mL) | X (X = MPC@4 ≤ 5 μg/mL) | X (X = MPC@4 ≤ 5 μg/mL) | Y (Y = 5 μg/mL < MPC@1 ≤ 20 μg/mL) | X (X = MPC@1 ≤ 5 μg/mL) | X (X = MPC@1 ≤ 5 μg/mL) | X (X = MPC@4 ≤ 5 μg/mL) | X (X = MPC@4 ≤ 5 μg/mL)
6 | O=C(O)c1c(F)ccc2c1OB(O)CC2CO (stereo not drawn) [Compound 6, 7-fluoro-2-hydroxy-4-(hydroxymethyl)-3,4-dihydro-1,2-benzoxaborinine-8-carboxylic Acid] | X (X = MPC@1 ≤ 5 μg/mL) | X (X = MPC@4 ≤ 5 μg/mL) | X (X = MPC@4 ≤ 5 μg/mL) | X (X = MPC@4 ≤ 5 μg/mL) | X (X = MPC@1 ≤ 5 μg/mL) | X (X = MPC@1 ≤ 5 μg/mL) | X (X = MPC@1 ≤ 5 μg/mL) | X (X = MPC@4 ≤ 5 μg/mL) | X (X = MPC@4 ≤ 5 μg/mL)
7 | O=C(O)c1c(F)ccc2c1OB(O)C[C@H]2CO [Compound 7, (4R)-7-fluoro-2-hydroxy-4-(hydroxymethyl)-3,4-dihydro-1,2-benzoxaborinine-8-carboxylic Acid] | Y (Y = 5 μg/mL < MPC@1 ≤ 20 μg/mL) | X (X = MPC@4 ≤ 5 μg/mL) | X (X = MPC@4 ≤ 5 μg/mL) | X (X = MPC@4 ≤ 5 μg/mL) | X (X = MPC@1 ≤ 5 μg/mL) | X (X = MPC@1 ≤ 5 μg/mL) | X (X = MPC@1 ≤ 5 μg/mL) | X (X = MPC@4 ≤ 5 μg/mL) | X (X = MPC@4 ≤ 5 μg/mL)
8 | O=C(O)c1c(F)ccc2c1OB(O)C[C@@H]2CO [Compound 8, (4S)-7-fluoro-2-hydroxy-4-(hydroxymethyl)-3,4-dihydro-1,2-benzoxaborinine-8-carboxylic Acid] | X (X = MPC@1 ≤ 5 μg/mL) | X (X = MPC@4 ≤ 5 μg/mL) | X (X = MPC@4 ≤ 5 μg/mL) | X (X = MPC@4 ≤ 5 μg/mL) | Y (Y = 5 μg/mL < MPC@1 ≤ 20 μg/mL) | X (X = MPC@1 ≤ 5 μg/mL) | X (X = MPC@1 ≤ 5 μg/mL) | X (X = MPC@4 ≤ 5 μg/mL) | X (X = MPC@4 ≤ 5 μg/mL)
9 | O=C(O)c1nccc2c1OB(O)CC2CO (stereo not drawn) [Compound 9, 2-Hydroxy-4-(hydroxymethyl)-3,4-dihydrooxaborinino[6,5-c]pyridine-8-carboxylic Acid] | X (X = MPC@1 ≤ 5 μg/mL) | X (X = MPC@4 ≤ 5 μg/mL) | X (X = MPC@4 ≤ 5 μg/mL) | X (X = MPC@4 ≤ 5 μg/mL) | X (X = MPC@1 ≤ 5 μg/mL) | X (X = MPC@1 ≤ 5 μg/mL) | X (X = MPC@1 ≤ 5 μg/mL) | X (X = MPC@4 ≤ 5 μg/mL) | X (X = MPC@4 ≤ 5 μg/mL)
10 | O=C(O)c1nccc2c1OB(O)CC2COCc1ccccc1 (stereo not drawn) [Compound 10, 4-(benzyloxymethyl)-2-hydroxy-3,4-dihydrooxaborinino[6,5-c]pyridine-8-carboxylic Acid] | Z (Z = MPC@1 > 20 μg/mL) | X (X = MPC@4 ≤ 5 μg/mL) | X (X = MPC@4 ≤ 5 μg/mL) | Y (Y = 5 μg/mL < MPC@4 ≤ 20 μg/mL) | Z (Z = MPC@1 > 20 μg/mL) | X (X = MPC@1 ≤ 5 μg/mL) | X (X = MPC@1 ≤ 5 μg/mL) | X (X = MPC@4 ≤ 5 μg/mL) | X (X = MPC@4 ≤ 5 μg/mL)
